The structures appear in SMILES notation. The campaign covered roughly 52,000 compounds. About 1,700 (3.3%) were called active. Cut-off read from the data, not from the text of the source: active = survival mostly below about 52% (no sharp cut-off); inactive = mostly above about 56%. Some of the results follow.

For this assay, the system named is Wild type. The experiment in a line: growth inhibition of S. aureus wild type versus tarO mutant, primary screen, teichoic acid synthesis inhibitors, RN4220, OD600 (AID 463173). Conditions: S. aureus RN4220 wild type/DeltatarO growth, OD600, 18 h, hits give low values, screened at 18.75 µg/mL (by protocol).
As for `CN(C)S(=O)(=O)c1cccc2nsnc12`, the survival is inactive: 120%.

Regarding `O=C(Nc1ccc(O)cc1)c1cccc(S(=O)(=O)N2CCOCC2)c1`, the survival was inactive: 85%.

On to `O=C(CSc1nc2c([nH]c3ccccc32)c(=O)n1-c1ccccc1)N1CCCC1`, for which the survival is inactive: 72%.

Take `COc1ccc(S(=O)(=O)CCc2nc3ccccc3n2CC(=O)O)cc1`: the survival was inactive: 102%.

Turning to `CN(C(=O)COc1ccccc1)C1CCS(=O)(=O)C1` (stereo not given), the survival is inactive: 98%.

For the compound `S=c1[nH]nc(COc2ccccc2)o1`, the survival is inactive: 77%.

Regarding `COc1cc(C2CC(=O)Nc3c2c(=O)[nH]c2ncnn32)ccc1O` (stereo not given), the survival was inactive: 77%.

With `CCOc1ccc(N=C2SCC(=O)N2CC)cc1`, the survival was inactive: 123%.

`CCOC(=O)C1CCCN(C(=O)c2ccc3c(c2)N(Cc2ccccc2)C(=O)c2ccccc2S3=O)C1` (stereo not given): the survival was inactive: 146%.

`Cc1ccc(C)c(NC(=O)Cn2c(=O)n(CCC(=O)NCc3ccc4c(c3)OCO4)c(=O)c3ccccc32)c1`: the survival was inactive: 103%.

Consider `CCCN1CCCc2cc(CN(CCCN3CCOCC3)C(=O)Nc3ccc(CC)cc3)ccc21`, for which the survival is inactive: 123%.

`Cc1ccc(OCC(=O)Nc2ccc3nn(-c4ccc(Cl)cc4)nc3c2)cc1`: the survival is inactive: 78%.

`CCOC(=O)c1cccc(Nc2ccc3cc(S(=O)(=O)N4CCCCC4)ccc3n2)c1`: the survival is active: -3%.

As to `O=c1c2oc3ccccc3c2n(Cc2ccccc2)c(=O)n1Cc1ccc2c(c1)OCO2`, the survival is inactive: 90%.

On to `COc1cc2c(cc1OC)n(CC(=O)c1ccc(F)cc1)c(=O)n1nc(CCn3nc(C)cc3C)nc21`, for which the survival is inactive: 119%.

In the case of `COc1cccc(CNC(=O)c2ccc(NC(=O)N3CCCCc4ccccc43)cc2)c1`, the survival is inactive: 88%.

For the compound `COc1ccc2oc(=O)cc(CN3CCN(c4ccccc4F)CC3)c2c1`, the survival was inactive: 81%.

In the case of `CCCCn1c(=O)c2oc3ccccc3c2n(CC(=O)Nc2cccc(Cl)c2)c1=O`, the survival is inactive: 87%.

Consider `CCCCc1nn2c(=O)cc(COC(=O)c3ccccc3NC(=O)c3ccccc3OC)nc2s1`, for which the survival is inactive: 66%.

`COc1cccc(NS(=O)(=O)c2ccc3[nH]cc(C(=O)N(C)C4CCCCC4)c(=O)c3c2)c1`: the survival is inactive: 68%.

In the case of `CCCC(=O)N1c2nc(C(C)C)nn2C2(CCCCC2)[C@@H]2CCCC[C@@H]21`, the survival was inactive: 98%.

In the case of `Cc1cc(C)cc(NC(=O)N2CCC(NC(=O)C3CCCCC3)CC2)c1`, the survival is inactive: 107%.

For the compound `O=C(Nc1cccc(Cl)c1)c1csnn1`, the survival was inactive: 88%.

For the compound `Cc1ccc(-c2nc(SCC(=O)NCC3CCCO3)c(-c3ccc(C)cc3)[nH]2)cc1` (stereo not given), the survival was inactive: 84%.

Consider `Cc1ccc(C(=O)CSc2nnc(-c3cccc(C)c3)o2)cc1`, for which the survival is inactive: 113%.
